Experimental data taken from PubChem BioAssay AID651820 (National Center for Advancing Translational Sciences (NCATS), 2012).
The whole screen tested about 340,000 compounds, of which about 12,000 (3.5%) were called active. This list was built around the results that the source calls inconclusive (neither active nor inactive); the mix of calls is not that of the screen. Calls come from the whole dose curve; as a rule, active = well fitted inhibition curve with a large enough effect; inconclusive = small, poorly fitted or top-dose-only effect, or another doubt; inactive = no such curve, though single readings can be large or run the other way. No potency is given beside an inconclusive call; the fits are too rough.

assay: qHTS Assay for Inhibitors of Hepatitis C Virus (HCV); conditions: Huh7.5.1 HCVcc-Cre (HCVcc is cell-culture hepatitis C virus) infection, luciferase reporter, 44 h; series mostly up to 41.8 µM
Outline: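 Infectious HCV cell culture screen: compound-treated cells (1,000/well, pre-plated 4 h) are infected with HCVcc-Cre at roughly 0.5 moi and grown 44 h. Infection is quantified by luciferase signal after 15 min substrate incubation at room temperature.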
Potency is the fitted concentration of half-maximal effect; tags give direction and shape of the fitted curve.

Row | Structure (SMILES) | Potency
1 | COc1ccc(S(=O)(=O)N(C)C[C@H]2Oc3ccc(NC(=O)Nc4ccccc4)cc3C(=O)N([C@H](C)CO)C[C@@H]2C)cc1 | inconclusive [inhibitor, partial curve]
2 | CSCC(=O)Nc1cc(C)on1 | inactive
3 | CN(C(=O)c1ccc(S(=O)(=O)c2cccc(Cl)c2)c([N+](=O)[O-])c1)C1CCCCC1 | inconclusive [inhibitor, single point]
4 | Cc1ccc2cccc(OCCOCCOc3ccccc3Br)c2n1 | inconclusive [inhibitor, single point]
5 | Cc1sc2ncnc(Sc3nnnn3-c3ccccc3)c2c1C | inconclusive [inhibitor, single point]
6 | CC(C)(C)c1ccc(O)c(/C=N\O)c1 | inactive
7 | CC(C)(C)C(=O)NC(Nc1cccc2cccnc12)C(Cl)(Cl)Cl (stereo not drawn) | inconclusive [inhibitor, single point]
8 | Cc1ccc(-c2noc(CSc3nnnn3C3CCCCC3)n2)cc1 | inconclusive [inhibitor, single point]
9 | Cc1ccc(C)c2sc(NC(=O)c3ccc(N4C(=O)CCC4=O)cc3)nc12 | inconclusive [inhibitor, partial curve]
10 | CCN(C[C@H]1N[C@@](Cc2ccccc2)(C(=O)OC)[C@H]2C(=O)N(C)C(=O)[C@@H]12)C(=O)COC | inconclusive [inhibitor, full curve]
11 | O=C(CSc1nc(C2CC2)nc2ccccc12)Nc1ccccc1N1CCOCC1 | inconclusive [inhibitor, single point]
12 | COc1cc(-c2cc(-c3ccc(F)cc3)nc(N)c2C#N)ccc1O | inconclusive [inhibitor, single point]
13 | O=C(Nc1cc(Sc2ccccn2)cc([N+](=O)[O-])c1)c1cccc(Cl)c1 | active: 8.91 µM
14 | CC1=Nc2cc(C(=O)NCc3ccco3)ccc2Sc2ccc(C)cc21 | inconclusive [inhibitor, full curve, poor fit]
15 | CSc1ccccc1-n1nnnc1SCC(=O)Nc1ccccc1C | active: 11.2 µM
16 | Cc1c(OCC(=O)NC2CC(C)(C)NC(C)(C)C2)ccc2c3c(c(=O)oc12)CCC3 | inconclusive [inhibitor, partial curve]
17 | COc1cc(/C=C2\CC/C(=C\c3cc(OC)c(OC)c(OC)c3)C2=O)cc(OC)c1OC | active: 12.6 µM
18 | Cc1ccc(-c2nc3cc(Cl)ccc3o2)cc1 | inconclusive [inhibitor, single point]
